The supplement of paper PMC8007513
Where a name gives a salt, the structure may show the parent alone. ± gives the standard error. About 130 (10%) of roughly 1,300 compounds showed an effect of 50% or more. The entries are a selection whose mix differs from that of the whole data set.

Tested on: Trichoderma virens ATCC 9645
Test: growth yield (OD600) with compound + IPBC relative to untreated control; higher = less growth inhibition
Settings: compound concentration: 100 uM, IPBC concentration: 200 ng/ml
How it was run: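 Growth appears as means of duplicate screens, relative to the control containing neither agent. To obtain it, OD600 was read on a BioTek EL800 at 40 h and 72 h. The cultures were 100 μl aliquots in 96-well plates at 30 °C, holding Trichoderma virens ATCC 9645 spores at 15,000 spores ml^−1 in potato dextrose broth, library compounds at 100 μM final, and, in some wells, a biocide at 200 ng ml^−1.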

Compound: CN(C/C=C/C#CC(C)(C)C)Cc1cccc2ccccc12 [Terbinafine] + CCCCNC(=O)OCC#CI [3-iodo-2-propynyl butylcarbamate (IPBC)]
- growth yield (40 h): 3.18 ± 0.64%
- growth yield (72 h): 2.94 ± 0.42%

Compound: Fc1ccc([C@@H]2CCNC[C@H]2COc2ccc3c(c2)OCO3)cc1 [Paroxetine Hydrochloride] + CCCCNC(=O)OCC#CI [3-iodo-2-propynyl butylcarbamate (IPBC)]
- growth yield (40 h): 68 ± 4.8%
- growth yield (72 h): 92.5 ± 2.5%

Compound: C[C@H]1COc2c(N3CCN(C)CC3)c(F)cc3c(=O)c(C(=O)O)cn1c23 [Levofloxacin] + CCCCNC(=O)OCC#CI [3-iodo-2-propynyl butylcarbamate (IPBC)]
- growth yield (40 h): 99.6 ± 10%
- growth yield (72 h): 100 ± 6.4%

Compound: NC(CO)C(=O)NNCc1ccc(O)c(O)c1O (configuration not stated) [Benserazide hydrochloride] + CCCCNC(=O)OCC#CI [3-iodo-2-propynyl butylcarbamate (IPBC)]
- growth yield (40 h): 63.9 ± 0.64%
- growth yield (72 h): 75.2 ± 0.52%

Compound: NCCC[C@H](N)CC(=O)N[C@H]1CNC(=O)[C@H]([C@H]2C[C@H](O)NC(N)=N2)NC(=O)/C(=C/NC(N)=O)NC(=O)[C@H](CO)NC(=O)[C@H](CO)NC1=O [Viomycin sulfate] + CCCCNC(=O)OCC#CI [3-iodo-2-propynyl butylcarbamate (IPBC)]
- growth yield (40 h): 97.21 ± 0.32%
- growth yield (72 h): 97.43 ± 0.52%

Compound: O=C(Oc1cccc2cccnc12)c1ccccc1 [Benzoxiquine] + CCCCNC(=O)OCC#CI [3-iodo-2-propynyl butylcarbamate (IPBC)]
- growth yield (40 h): 36.4 ± 0.48%
- growth yield (72 h): 65.5 ± 0.73%

Compound: CN1CCC(OC(c2ccccc2)c2ccccc2)CC1 [Diphenylpyraline hydrochloride] + CCCCNC(=O)OCC#CI [3-iodo-2-propynyl butylcarbamate (IPBC)]
- growth yield (40 h): 81.96 ± 0.64%
- growth yield (72 h): 85.4 ± 1.3%

Compound: CN(C)C(=O)Oc1cccc([N+](C)(C)C)c1 [Neostigmine bromide] + CCCCNC(=O)OCC#CI [3-iodo-2-propynyl butylcarbamate (IPBC)]
- growth yield (40 h): 83.4 ± 1.1%
- growth yield (72 h): 92.19 ± 0.52%

Compound: Clc1ccc(Nc2nnc(Cc3ccncc3)c3ccccc23)cc1 [Vatalanib] + CCCCNC(=O)OCC#CI [3-iodo-2-propynyl butylcarbamate (IPBC)]
- growth yield (40 h): 72.59 ± 0.16%
- growth yield (72 h): 82%

Compound: C[C@H](CCC(=O)O)[C@H]1CC[C@H]2[C@@H]3CC[C@@H]4C[C@H](O)CC[C@]4(C)[C@H]3CC[C@]12C [Lithocholic acid] + CCCCNC(=O)OCC#CI [3-iodo-2-propynyl butylcarbamate (IPBC)]
- growth yield (40 h): 112 ± 9.5%
- growth yield (72 h): 106 ± 8.2%

Compound: CC(=O)SCC(Cc1ccccc1)C(=O)NCC(=O)OCc1ccccc1 (configuration not stated) [Racecadotril] + CCCCNC(=O)OCC#CI [3-iodo-2-propynyl butylcarbamate (IPBC)]
- growth yield (40 h): 73.7 ± 1.6%
- growth yield (72 h): 81.9 ± 1.6%

Compound: COC(=O)C1=C(C)NC(C)=C(C(=O)OC(C)C)C1c1cccc2nonc12 (configuration not stated) [Isradipine] + CCCCNC(=O)OCC#CI [3-iodo-2-propynyl butylcarbamate (IPBC)]
- growth yield (40 h): 81.3 ± 6.7%
- growth yield (72 h): 87.6 ± 3.9%

Compound: O=C(O)CCCC[C@@H]1SC[C@@H]2NC(=O)N[C@@H]21 [Biotin] + CCCCNC(=O)OCC#CI [3-iodo-2-propynyl butylcarbamate (IPBC)]
- growth yield (40 h): 85.3 ± 3.3%
- growth yield (72 h): 91.03 ± 0.84%

Compound: COCC(=O)Nc1c(I)c(C(=O)NCC(O)CO)c(I)c(C(=O)N(C)CC(O)CO)c1I (configuration not stated) [Iopromide] + CCCCNC(=O)OCC#CI [3-iodo-2-propynyl butylcarbamate (IPBC)]
- growth yield (40 h): 98 ± 5.2%
- growth yield (72 h): 96 ± 5.8%

Compound: CC1COc2c(N3CCN(C)CC3)c(F)cc3c(=O)c(C(=O)O)cn1c23 (configuration not stated) [Ofloxacin] + CCCCNC(=O)OCC#CI [3-iodo-2-propynyl butylcarbamate (IPBC)]
- growth yield (40 h): 84.3 ± 1.8%
- growth yield (72 h): 91.3 ± 0.94%

Compound: Cn1cnc([N+](=O)[O-])c1Sc1ncnc2[nH]cnc12 [Azathioprine] + CCCCNC(=O)OCC#CI [3-iodo-2-propynyl butylcarbamate (IPBC)]
- growth yield (40 h): 99.9 ± 7.5%
- growth yield (72 h): 98.6 ± 5.2%

Compound: CC(C)C(=O)Nc1ccc([N+](=O)[O-])c(C(F)(F)F)c1 [Flutamide] + CCCCNC(=O)OCC#CI [3-iodo-2-propynyl butylcarbamate (IPBC)]
- growth yield (40 h): 58.29 ± 0.48%
- growth yield (72 h): 78.9 ± 4.2%

Compound: OCCN1C[C@H](O)[C@@H](O)[C@H](O)[C@H]1CO [Miglitol] + CCCCNC(=O)OCC#CI [3-iodo-2-propynyl butylcarbamate (IPBC)]
- growth yield (40 h): 90.1 ± 9.1%
- growth yield (72 h): 93 ± 4.5%

Compound: CCNCC(O)c1cccc(O)c1 (configuration not stated) [Etilefrine hydrochloride] + CCCCNC(=O)OCC#CI [3-iodo-2-propynyl butylcarbamate (IPBC)]
- growth yield (40 h): 96.9 ± 3.5%
- growth yield (72 h): 98.1 ± 2.4%

Compound: CCC(=O)OCC(=O)[C@@]1(OC(=O)CC)[C@@H](C)C[C@H]2[C@@H]3CCC4=CC(=O)C=C[C@]4(C)[C@@]3(Cl)[C@@H](O)C[C@@]21C [Beclomethasone dipropionate] + CCCCNC(=O)OCC#CI [3-iodo-2-propynyl butylcarbamate (IPBC)]
- growth yield (40 h): 106.9 ± 0.48%
- growth yield (72 h): 105 ± 1.5%

Compound: CCN(CC)Cc1cc(Nc2ccnc3cc(Cl)ccc23)ccc1O [Amodiaquin dihydrochloride dihydrate] + CCCCNC(=O)OCC#CI [3-iodo-2-propynyl butylcarbamate (IPBC)]
- growth yield (40 h): 62.9%
- growth yield (72 h): 93.13 ± 0.84%

Compound: COc1ccccc1N1CCN(CCCNc2cc(=O)n(C)c(=O)n2C)CC1 [Urapidil hydrochloride] + CCCCNC(=O)OCC#CI [3-iodo-2-propynyl butylcarbamate (IPBC)]
- growth yield (40 h): 88.3 ± 1.3%
- growth yield (72 h): 92.4 ± 0.1%

Compound: COc1nc(N)nc2c1ncn2[C@@H]1O[C@H](CO)[C@@H](O)[C@@H]1O [Nelarabine] + CCCCNC(=O)OCC#CI [3-iodo-2-propynyl butylcarbamate (IPBC)]
- growth yield (40 h): 92.6 ± 7.2%
- growth yield (72 h): 94 ± 4.4%

Compound: Cn1c(=O)c2c(ncn2CCO)n(C)c1=O [Etofylline] + CCCCNC(=O)OCC#CI [3-iodo-2-propynyl butylcarbamate (IPBC)]
- growth yield (40 h): 96.9 ± 3.8%
- growth yield (72 h): 100 ± 1.8%

Compound: CC(C)NCC(O)c1cc(O)cc(O)c1 (configuration not stated) [Metaproterenol sulfate, orciprenaline sulfate] + CCCCNC(=O)OCC#CI [3-iodo-2-propynyl butylcarbamate (IPBC)]
- growth yield (40 h): 85.14 ± 0.32%
- growth yield (72 h): 90.72 ± 0.52%

Compound: C#CCN(C)CCCOc1ccc(Cl)cc1Cl [Clorgyline hydrochloride] + CCCCNC(=O)OCC#CI [3-iodo-2-propynyl butylcarbamate (IPBC)]
- growth yield (40 h): 60.36 ± 0.32%
- growth yield (72 h): 87.2 ± 2.2%

Compound: O=C(O)CN(CCN(CC(=O)O)CC(=O)O)CCN(CC(=O)O)CC(=O)O [Pentetic acid] + CCCCNC(=O)OCC#CI [3-iodo-2-propynyl butylcarbamate (IPBC)]
- growth yield (40 h): 18.7 ± 1.6%

Compound: O=C(O)CCNC(=O)c1ccc(/N=N/c2ccc(O)c(C(=O)O)c2)cc1 [Balsalazide Sodium] + CCCCNC(=O)OCC#CI [3-iodo-2-propynyl butylcarbamate (IPBC)]
- growth yield (40 h): 87.4 ± 9.2%
- growth yield (72 h): 89 ± 5.6%

Compound: Cc1cccc(Nc2ccccc2C(=O)O)c1C [Mefenamic acid] + CCCCNC(=O)OCC#CI [3-iodo-2-propynyl butylcarbamate (IPBC)]
- growth yield (40 h): 80.2 ± 2.1%
- growth yield (72 h): 85.89 ± 0.1%

Compound: CCC(C)n1ncn(-c2ccc(N3CCN(c4ccc(OCC5COC(Cn6cncn6)(c6ccc(Cl)cc6Cl)O5)cc4)CC3)cc2)c1=O (configuration not stated) [Itraconazole] + CCCCNC(=O)OCC#CI [3-iodo-2-propynyl butylcarbamate (IPBC)]
- growth yield (40 h): 14.3 ± 1.9%
- growth yield (72 h): 11.3 ± 1.7%

Compound: C[n+]1ccccc1/C=N/O [Pralidoxime chloride] + CCCCNC(=O)OCC#CI [3-iodo-2-propynyl butylcarbamate (IPBC)]
- growth yield (40 h): 96.7 ± 2.1%
- growth yield (72 h): 96.91 ± 0.42%

Compound: O=C1OC(CN2CCOCC2)CN1/N=C/c1ccc([N+](=O)[O-])o1 (configuration not stated) [Furaltadone hydrochloride] + CCCCNC(=O)OCC#CI [3-iodo-2-propynyl butylcarbamate (IPBC)]
- growth yield (40 h): 85.8 ± 13%
- growth yield (72 h): 92.9 ± 6.7%

Compound: CC(C)(N)Cc1ccccc1 [Phentermine hydrochloride] + CCCCNC(=O)OCC#CI [3-iodo-2-propynyl butylcarbamate (IPBC)]
- growth yield (40 h): 94.4 ± 6.3%
- growth yield (72 h): 95.8 ± 4.5%

Compound: O=C1CCC(N2C(=O)c3ccccc3C2=O)C(=O)N1 (configuration not stated) [Thalidomide] + CCCCNC(=O)OCC#CI [3-iodo-2-propynyl butylcarbamate (IPBC)]
- growth yield (40 h): 95.3 ± 3.2%
- growth yield (72 h): 101 ± 4.4%

Compound: O=C1NCCN1CCN1CCC(c2cn(-c3ccc(F)cc3)c3ccc(Cl)cc23)CC1 [Sertindole] + CCCCNC(=O)OCC#CI [3-iodo-2-propynyl butylcarbamate (IPBC)]
- growth yield (40 h): 5.24 ± 0.79%
- growth yield (72 h): 3.46 ± 0.1%

Compound: Cc1nc2n(c(=O)c1CCN1CCC(c3noc4cc(F)ccc34)CC1)CCCC2O (configuration not stated) [Paliperidone] + CCCCNC(=O)OCC#CI [3-iodo-2-propynyl butylcarbamate (IPBC)]
- growth yield (40 h): 82.28 ± 0.32%
- growth yield (72 h): 90.09 ± 0.32%

Compound: CCN(CC)CCNC(=O)COc1ccc(OC)cc1 [Mefexamide hydrochloride] + CCCCNC(=O)OCC#CI [3-iodo-2-propynyl butylcarbamate (IPBC)]
- growth yield (40 h): 82.44 ± 0.16%
- growth yield (72 h): 93.3 ± 1.1%

Compound: Clc1ccc(C(Cn2ccnc2)OCc2csc3c(Cl)cccc23)c(Cl)c1 (configuration not stated) [Sertaconazole nitrate] + CCCCNC(=O)OCC#CI [3-iodo-2-propynyl butylcarbamate (IPBC)]
- growth yield (40 h): 3.97 ± 0.16%
- growth yield (72 h): 3.57 ± 0.42%

Compound: CC(=O)OCC1=C(C(=O)O)N2C(=O)[C@@H](NC(=O)Cc3cccs3)[C@H]2SC1 [Cephalothin sodium salt] + CCCCNC(=O)OCC#CI [3-iodo-2-propynyl butylcarbamate (IPBC)]
- growth yield (40 h): 91.7 ± 8.4%
- growth yield (72 h): 90.9 ± 7.9%
